{"source": "PubChem BioAssay AID686978", "about": "(National Center for Advancing Translational Sciences (NCATS), 2013)", "note": "“And” between values parts separate entries of the source, which are not always exact repeats. Identical values can stand only once. Among all 420,000 compounds or so, about 64,000 (15%) were called active. This list was built around the results that the source calls inconclusive (neither active nor inactive); the mix of calls is not that of the screen. The call rests on the fitted dose curve; in most records, active means well fitted inhibition curve with a large enough effect; inconclusive means small, poorly fitted or top-dose-only effect; inactive means flat fitted curve, though single readings scatter. Potencies beside an inconclusive call are fits to weak or partial responses and may not hold up. On the % scale 0 is the no-effect control and ±100 the full control effect; potency means the concentration at half of the fitted maximal effect; tags describe the fitted curve by direction and shape."}
{"experiment": "qHTS for Inhibitors of human tyrosyl-DNA phosphodiesterase 1 (TDP1): qHTS in cells in absence of CPT; further: nearly all actives have a fitted effect of over 55% in size", "settings": "DT40 Tdp1-/- hTDP1 cells, no CPT, ATP luminescence, 48 h; activity change, negative = growth inhibition: at 46.2 µM (top of the series) unless noted", "outline": "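Growth kinetics read by CellTiter-Glo luminescence after ≥48 hr at 37 °C. Cells: DT40 Tdp1-/- stably carrying human TDP1, 400 per well, compound exposure in the absence of CPT (DMSO vehicle).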"}
{"smiles": "Nc1c(Cl)cc(-c2csc(NCCc3nc4cc(Cl)c(Cl)cc4n3CCCO)n2)cc1Cl", "Potency": "inconclusive: 29.1 µM [inhibitor, single point]"}
{"smiles": "Cc1ccccc1C(=O)Nc1ccc2c(C#N)c3nc4ccccc4nc3n2c1", "Potency": "active: 20.6 µM"}
{"smiles": "Cc1nc(C)c(C(=O)OCC(=O)Nc2ccccc2)s1", "activity change, negative = growth inhibition": "inactive: -2.89%"}
{"smiles": "O=C(Cn1c2c(sc1=O)C1c3ccccc3OCC1CS2)Nc1ccc(Cl)c(Cl)c1", "note": "(stereo not drawn)", "Potency": "active: 16.4 µM"}
{"smiles": "CCCc1ccc(OCC(=O)NNC(=S)NC(=O)c2ccco2)cc1", "Potency": "active: 20.6 µM"}
{"smiles": "COC(C(=O)N1CCC(CCC(=O)Nc2ccccc2)CC1)c1ccccc1", "note": "(stereo not drawn)", "Potency": "active: 9.2 µM"}
{"smiles": "CCCc1nc2ccccc2c(=O)n1-c1ccc(C(=O)OCC)cc1", "Potency": "inconclusive: 18.4 µM [inhibitor, single point]"}
{"smiles": "CC1(C)CC(=O)C2=C(C1)Oc1ncn(CCCO)c(=N)c1C2c1ccccc1", "note": "(stereo not drawn)", "activity change, negative = growth inhibition": "inactive: 2.43%"}
{"smiles": "COc1ccc(-c2cc(C(=O)O)nc3ccc4ccccc4c23)cc1OC", "activity change, negative = growth inhibition": "inactive: 8.47%"}
{"smiles": "C(=N\\Nc1nc(-c2ccccc2)cs1)/c1cccnc1", "Potency": "inconclusive: 15.8 µM [inhibitor, single point]"}
{"smiles": "Cc1ccc2oc(-c3cc(NC(=O)c4ccco4)ccc3Cl)nc2c1", "Potency": "inconclusive: 29.1 µM [inhibitor, single point]"}
{"smiles": "CN(CC(=O)Nc1ccc(Cl)c(Cl)c1)CC(=O)N1CCc2ccccc21", "Potency": "inconclusive: 20.6 µM [inhibitor, partial curve]"}
{"smiles": "C/C(=N\\OCc1ccc(C#N)cc1)c1ccc(S(=O)(=O)N(C)C)cc1", "Potency": "inconclusive: 16.4 µM [inhibitor, single point]"}
{"smiles": "CC(OC(=O)c1cc2ccccc2cc1O)C(=O)Nc1ccc(S(N)(=O)=O)cc1", "note": "(stereo not drawn)", "activity change, negative = growth inhibition": "inactive: -22.6%"}
{"smiles": "Cc1ccc(NC(=O)CN2C(=O)CCn3nc(-c4cccn4C)cc32)cc1", "activity change, negative = growth inhibition": "inactive: 6.11%"}
{"smiles": "Cc1ccccc1OCCOc1ccc([N+](=O)[O-])cc1/C=N/n1cnnc1", "Potency": "active: 1.46 µM"}
{"smiles": "O=C(CNCc1ccc(Cl)cc1)Nc1cccc(C(=O)O)c1", "activity change, negative = growth inhibition": "inconclusive: -32.1% [inhibitor]"}
{"smiles": "COCCCNc1nc2c(S(=O)(=O)c3ccc(C)c(C)c3)nnn2c2ccc(Cl)cc12", "Potency": "inconclusive: 16.4 µM [inhibitor, partial curve]"}
{"smiles": "ClC1CCCCC1n1nnc2ccccc21", "note": "(stereo not drawn)", "activity change, negative = growth inhibition": "inactive: -14.3%"}
{"smiles": "CCOc1ccc(OCC)c(NC(=O)CCC(=O)N2CCOc3ccccc32)c1", "Potency": "active: 25.9 µM"}
{"smiles": "O=S(=O)(Nc1ccc(N2CCOCC2)cc1)c1ccc(F)cc1F", "Potency": "inconclusive: 23.1 µM [inhibitor, partial curve, poor fit]"}
{"smiles": "Cc1ccc(S(=O)(=O)N2CCN(CCC#N)CC2)cc1", "activity change, negative = growth inhibition": "inactive: 6.3%"}
{"smiles": "COc1ccc2nc(NC(=O)CSc3nc(C)cc(=O)[nH]3)sc2c1", "Potency": "inconclusive: 23.1 µM [inhibitor, single point]"}
{"smiles": "CCN(C(=O)C(=O)c1c(C)[nH]c2ccccc12)c1ccccc1", "Potency": "inconclusive: 22.4 µM [inhibitor, single point]"}
{"smiles": "COc1ccc2c(C)cc(=O)oc2c1OCC(O)CN1CCOCC1", "note": "(stereo not drawn)", "activity change, negative = growth inhibition": "inactive: 0.918%"}
{"smiles": "CC1CCCN(CCCNC(=O)CCn2nc(-c3ccccc3)ccc2=O)C1", "note": "(stereo not drawn)", "activity change, negative = growth inhibition": "inactive: 8.81%"}
{"smiles": "CCCOc1c(Br)cc(C(=O)OCc2cc(=O)n3ccsc3n2)cc1OC", "Potency": "active: 10.3 µM"}
{"smiles": "CC1(C)N=C(c2cccs2)C(C)(C)N1O", "activity change, negative = growth inhibition": "inactive: -21%"}
{"smiles": "CC1(C)C[C@H]2C3=CCC4[C@@]5(C)CC[C@H](O)[C@@](C)(CO)C5CC[C@@]4(C)[C@]3(C)C[C@@H](O)[C@@]2(CO)[C@@H](O)[C@@H]1O", "note": "(stereo partly drawn)", "Potency": "inconclusive: 20.6 µM [inhibitor, single point]"}
{"smiles": "CCC(=O)N1c2ccccc2CC1C(=O)NCCc1ccc(C)cc1", "note": "(stereo not drawn)", "activity change, negative = growth inhibition": "inactive: -27.3%"}
{"smiles": "CCOC(=O)c1ccc(N2C(=O)c3n[nH]c(-c4ccco4)c3C2c2ccc(O)c(OC)c2)cc1", "note": "(stereo not drawn)", "Potency": "inconclusive: 23.1 µM [inhibitor, single point]"}
{"smiles": "Cc1ccc(CNC(=O)c2nn(C)c3c2CS(=O)(=O)c2ccccc2-3)cc1", "Potency": "inconclusive: 25.9 µM [inhibitor, single point] and inconclusive: 29.1 µM [inhibitor, single point]"}
{"smiles": "Cc1cc(NC2CCCCC2)nc2ccccc12", "Potency": "active: 16.4 µM"}
{"smiles": "Cc1ccc(-c2nn(-c3ccccc3)cc2CO)o1", "activity change, negative = growth inhibition": "inactive: -5.62%"}
{"smiles": "CCOC(=O)CSc1nc(C)cc(C)c1C(N)=O", "activity change, negative = growth inhibition": "inactive: -8.75%"}
{"smiles": "O=C1OCCC1=COCCCCCCOC=C1CCOC1=O", "Potency": "inconclusive: 11.6 µM [inhibitor, partial curve]"}
{"smiles": "Cc1ccccc1NC(=S)N(Cc1ccco1)C(C)c1ccccn1", "note": "(stereo not drawn)", "Potency": "inconclusive: 25.9 µM [inhibitor, single point]"}
{"smiles": "Cc1cccc2cc(CNC3CCCC3)c(Cl)nc12", "Potency": "inconclusive: 29.1 µM [inhibitor, single point]"}
{"smiles": "O=C(COc1ccc(Cl)cc1)Nc1cc(S(=O)(=O)N2CCCCC2)ccc1N1CCCCC1", "Potency": "active: 10.3 µM"}
{"smiles": "COc1ccc2oc(C(=O)OCC(=O)c3ccc4c(c3)OCCO4)c(C)c2c1", "Potency": "inconclusive: 29.1 µM [inhibitor, single point]"}
{"smiles": "C[C@]12c3[nH]c4ccccc4c3CCN1C(=O)C(CC(=O)NCCC1=CCCCC1)C[C@@H]2C(=O)N1CCCCC1", "note": "(stereo partly drawn)", "activity change, negative = growth inhibition": "inactive: -23.2%"}
{"smiles": "CC(C)OC(=O)NCCOC(=O)Nc1cccc(Cl)c1", "Potency": "inconclusive: 3.26 µM [inhibitor, partial curve, poor fit]"}
{"smiles": "O=C(Nc1ccc(Cl)c([N+](=O)[O-])c1)c1ccc2c(c1)OCCO2", "Potency": "inconclusive: 16.4 µM [inhibitor, single point]"}
{"smiles": "O=C1C(=O)C(c2ccccc2)C(=O)C1c1ccccc1", "note": "(stereo not drawn)", "Potency": "inconclusive: 0.58 µM [inhibitor, full curve]"}
{"smiles": "Cc1cccc(N=C2NC(=O)/C(=C/c3cn(C)c4ccccc34)S2)c1", "Potency": "active: 16.4 µM"}
{"smiles": "O=C(NCC(c1ccco1)N1CCc2ccccc21)c1cccc([N+](=O)[O-])c1", "note": "(stereo not drawn)", "Potency": "active: 20.6 µM"}
{"smiles": "CC1CC(C)CN(CC(O)COc2ccc3c(c2)CCC3)C1", "note": "(stereo not drawn)", "Potency": "inconclusive: 16.4 µM [inhibitor, single point]"}
{"smiles": "Cc1cc(NC(=O)CCC(=O)N(C2CC2)C2(C(=O)NC3CCCC3)CCC(C)CC2)no1", "note": "(stereo not drawn)", "activity change, negative = growth inhibition": "inconclusive: -34.5% [inhibitor]"}
{"smiles": "O=C(CSCc1nc2cccnc2n1C1CCCCC1)NCc1cccc(Cl)c1", "Potency": "active: 10.3 µM"}
{"smiles": "CC1(C)CC(=O)C2=C(C1)c1c(ccc3ccccc13)NC2c1ccc(OCC(=O)O)cc1", "note": "(stereo not drawn)", "Potency": "inconclusive: 29.1 µM [inhibitor, single point]"}
{"smiles": "COc1ccc(-n2nc(C(=O)N3CCN(c4cccc(C)c4C)CC3)c3c4ccccc4n(C)c3c2=O)cc1", "activity change, negative = growth inhibition": "inactive: -8.79%"}
{"smiles": "O=C(CN1CCN(C(=O)C2CCCO2)CC1)Nc1ccc(Cl)cc1", "note": "(stereo not drawn)", "activity change, negative = growth inhibition": "inactive: 0.926%"}
{"smiles": "O=C(COc1ccc(Br)cc1)NCCCn1ccnc1", "activity change, negative = growth inhibition": "inactive: 8.56%"}
{"smiles": "CCSC1=C(C#N)C(c2ccc3c(c2)OCO3)C2=C(CCCC2=O)N1", "note": "(stereo not drawn)", "Potency": "inconclusive: 20.6 µM [inhibitor, single point]"}
{"smiles": "Cc1nc2sc(C(N)=O)c(N)c2c(-c2ccc(Br)cc2)c1C(=O)Nc1ccc(Cl)cc1", "Potency": "inconclusive: 29.1 µM [inhibitor, single point]"}
{"smiles": "CC(=O)c1cccc(NC(=O)COC(=O)c2ccc(S(C)(=O)=O)c([N+](=O)[O-])c2)c1", "Potency": "active: 14.6 µM and active: 10 µM"}
{"smiles": "Cc1cccc(NC(=O)c2ccc(-c3nc(CSc4ccccc4)c(C)o3)cc2)c1C", "Potency": "inconclusive: 6.51 µM [inhibitor, full curve, poor fit]"}
{"smiles": "COc1cccc(CNC(=O)CN2C(=O)NC(Cc3ccccc3)(c3ccccc3)C2=O)c1", "note": "(stereo not drawn)", "activity change, negative = growth inhibition": "inactive: -3.32%"}
{"smiles": "O=C(Nc1cccc(N2CCC(NCc3cnn(-c4cccc(F)c4)c3)CC2)c1)c1ccncc1", "Potency": "inconclusive: 20.6 µM [inhibitor, single point]"}
{"smiles": "COc1ccc(-c2ccc3c(c2)O[C@@H](CN(C)C(=O)c2ccccc2F)[C@@H](C)CN([C@@H](C)CO)S3(=O)=O)cc1", "Potency": "inconclusive: 29.1 µM [inhibitor, partial curve]"}
{"smiles": "COc1ccc(C(=O)NCCNC(=O)c2ccc(C)nc2)cc1", "activity change, negative = growth inhibition": "inactive: -0.848%"}
{"smiles": "O=C(CSc1nnc2ccc3ccccc3n12)c1ccc(F)cc1", "Potency": "active: 16.4 µM"}
{"smiles": "CC(=O)Nc1ccc(S(=O)(=O)N2CCN=C2SCc2cccc(C)c2)cc1", "Potency": "inconclusive: 18.4 µM [inhibitor, single point]"}
{"smiles": "Cn1c(CN2CCOCC2)nnc1SCC(=O)Nc1ccc([N+](=O)[O-])cc1O", "activity change, negative = growth inhibition": "inactive: -0.371%"}
{"smiles": "O=C(C(=O)N1CCN(c2ccc([N+](=O)[O-])cc2)CC1)c1cn(CC(=O)N2CCOCC2)c2ccccc12", "Potency": "inconclusive: 16.4 µM [inhibitor, partial curve, poor fit]"}
{"smiles": "COC(=O)c1c(C)[nH]c(C)c1-c1ccccc1Cl", "Potency": "inconclusive: 29.1 µM [inhibitor, single point]"}
{"smiles": "CC(COC(=O)c1ccccc1)(COC(=O)c1ccccc1)/[N+]([O-])=C/c1ccccc1", "activity change, negative = growth inhibition": "inactive: -14%"}
{"smiles": "Cc1ccccc1C(=O)Nc1ccc2c(c1)CCCN2C(=O)c1cccs1", "Potency": "inconclusive: 25.9 µM [inhibitor, single point] and inconclusive: 29.1 µM [inhibitor, single point]"}
{"smiles": "COc1cccc(C(=O)NCCSc2ccc(Br)cc2)c1", "activity change, negative = growth inhibition": "inactive: -15.9%"}
{"smiles": "Cc1ccc(C2(O)CN(c3ccccc3C)C3=[N+]2CCS3)cc1", "note": "(stereo not drawn)", "Potency": "active: 18.4 µM"}
{"smiles": "CC(=O)N1c2ccc(S(=O)(=O)N3CCC(C(=O)Nc4cccc(C)n4)CC3)cc2CC1C", "note": "(stereo not drawn)", "Potency": "inconclusive: 13 µM [inhibitor, partial curve]"}
{"smiles": "O=C(O)COc1ccc(Nc2ccccc2)cc1", "activity change, negative = growth inhibition": "inactive: -9.66%"}
{"smiles": "CC(OC(=O)c1cccc([N+](=O)[O-])c1)C(=O)N1CCc2ccccc21", "note": "(stereo not drawn)", "Potency": "inconclusive: 13 µM [inhibitor, partial curve]"}
